# Test results taken from PMC6919601, “Identification of Plasmodium dipeptidyl aminopeptidase allosteric inhibitors by high throughput screening” (PLoS ONE, 2019).
# The campaign covered roughly 110,000 compounds. About 230 (0.21%) showed an effect of 50% or more. Some of the results follow.
# Target: DPAP1 (Plasmodium falciparum, UniProt Q8IIJ9)
# Assay: primary screen, percent inhibition; read by cleavage of a fluorogenic dipeptide substrate; higher = more effect of the substance
# Parameters: species or system P. falciparum D10 trophozoite lysates; single well
# 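Also: 30 min substrate incubation versus DMSO and 10 µM JCP410 controls.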
# Sequence of DPAP1 (Q8IIJ9 whole entry, looked up): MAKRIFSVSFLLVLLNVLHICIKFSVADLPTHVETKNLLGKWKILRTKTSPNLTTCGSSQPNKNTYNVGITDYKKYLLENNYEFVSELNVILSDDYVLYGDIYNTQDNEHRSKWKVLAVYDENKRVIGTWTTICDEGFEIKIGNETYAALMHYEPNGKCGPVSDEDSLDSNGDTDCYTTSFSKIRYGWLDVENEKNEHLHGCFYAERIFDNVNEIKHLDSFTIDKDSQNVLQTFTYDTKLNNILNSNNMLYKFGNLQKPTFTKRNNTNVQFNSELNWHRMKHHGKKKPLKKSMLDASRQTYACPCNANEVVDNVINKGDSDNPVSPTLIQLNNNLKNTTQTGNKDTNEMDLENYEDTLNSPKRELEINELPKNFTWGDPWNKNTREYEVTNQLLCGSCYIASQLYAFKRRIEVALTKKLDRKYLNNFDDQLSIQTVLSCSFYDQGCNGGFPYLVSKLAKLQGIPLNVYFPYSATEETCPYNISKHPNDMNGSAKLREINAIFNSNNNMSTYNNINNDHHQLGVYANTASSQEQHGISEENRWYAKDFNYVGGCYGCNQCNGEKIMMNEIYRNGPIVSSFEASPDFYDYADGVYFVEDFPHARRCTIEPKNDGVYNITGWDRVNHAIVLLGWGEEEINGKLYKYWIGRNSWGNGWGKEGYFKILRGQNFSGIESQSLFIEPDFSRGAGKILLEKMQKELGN
row,Structure (SMILES),% Inhibition @ 10 uM [%]
1,CN(C)c1ccc(C(=C2CN3CCC2CC3)c2ccc(N(C)C)cc2)cc1,4.69
2,CC(O)Cn1c2ccccc2c2ccccc21 (stereo not drawn),3.85
3,Cc1cc(NC(=O)CNC(=O)c2ccccc2)no1,-1.81
4,CC1=C(c2ccc(C)cc2)S(=O)(=O)N=C1N1CCN(C2CCCCC2)CC1,-1.08
5,Cc1ccc(CN2CCNC(=O)C2CC(=O)O)o1 (stereo not drawn),5.54
6,COc1ccccc1N(CC(=O)NCc1ccco1)S(C)(=O)=O,-2.8
7,COCCCn1c(=O)c2sccc2n2c(CCCC(=O)N3CCN(c4ncccn4)CC3)nnc12,-5.95
8,CCOC(=O)c1cnc2ccc(Br)cc2c1NCCc1ccc(OC)c(OC)c1,-4.84
9,CCOC(=O)c1cc(-c2ccc(F)cc2)n(CC(=O)N2C(C)CCCC2C)c1C (stereo not drawn),3.07
10,O=C(O)c1cccc(S(=O)(=O)N2CCCCC2)c1,3.74
11,Cc1ccccc1C(=O)NC1CCCCC1NC(=O)c1ccccc1C (stereo not drawn),1.28
12,CCN(CC)CCNC(=O)c1ccccc1NC(=O)Nc1cccc(C(F)(F)F)c1,-6.25
13,CC1CCCC(N2CCN(c3ccc(Cl)cc3)CC2)C1 (stereo not drawn),1.57
14,Cc1ccc(CNC(=O)Nc2nnc(N(C)Cc3ccccc3)s2)cc1,6.91
15,COCc1nc2ccccc2n1CCC1CCCCC1,-2.5
16,Fc1ccccc1C1CC(c2ccc(Cl)cc2OC(F)F)Nc2ncnn21 (stereo not drawn),-8.88
17,O=C1C(/C=N/c2[nH]ncc2-c2ccccc2)=C(O)c2ccccc21,-4.76
18,CCc1nnc(NC(=O)c2cc(Cl)ccc2Cl)s1,9.19
19,O=C(c1cccs1)N(Cc1cccc(F)c1)C1CCS(=O)(=O)C1 (stereo not drawn),3.62
20,CCOC(=O)N1CCN(C2CC(=O)N(c3cccc(Br)c3)C2=O)CC1 (stereo not drawn),-0.725
21,Cc1ccc(C2=NS(=O)(=O)N(C)C(C(=O)N3CCN(C)CC3)=C2)cc1,0.655
22,N#CC(C#N)=CNCc1ccccc1,-3.04
23,Cc1cccc(Oc2cc(-n3nc(C)c(C#N)c3N)ncn2)c1,-10.5
24,O=C(Cn1cc(C(=O)C2CCCCC2)c2ccccc21)NCc1ccccc1,-3.13
25,Cc1ccc(C(=O)N2CCN(c3ccccc3)CC2)o1,-2.34

row,Structure (SMILES),% Inhibition @ 10 uM [%]
1,Cc1ccccc1S(=O)(=O)Nc1nc2c(Cl)cccc2s1,-3.45
2,Cc1cc(C(=O)C(=O)Nc2nccs2)c(C)n1Cc1ccccc1,2.32
3,CCCN1C(=O)c2[nH]nc(-c3ccco3)c2C1c1ccc(O)c(OC)c1 (stereo not drawn),-2.84
4,Cc1ccccc1OCc1nc2ccccc2[nH]1,2.1
5,COc1ccc(CNCc2c(C(=O)O)c(C)n(Cc3cc(C)ccc3C)c2C)cc1,-3.67
6,Cc1ccc(-c2cc3c4c(C)n(C5CCCCC5)c(C)c4c(C)nn3c2)o1,3.81
7,O=c1cc(O)nc(SCc2ccccc2)n1-c1ccccc1,-1.05
8,CCSc1ncc(Cl)c(C(=O)Nc2sc3c(c2C(=O)NCCOC)CCCC3)n1,0.569
9,Cn1nc(C(=O)NCCN(Cc2ccco2)C2CCCC2)c2c1-c1ccccc1S(=O)(=O)C2,1.23
10,O=C(c1ccccc1)N1CCN(C(=O)c2ccc(Cl)cc2Cl)CC1,-1.93
11,CCCOc1ccc(C2C(C#N)=C(N)OC3=C2C(=O)CCC3)cc1OCC (stereo not drawn),-2.68
12,CC[C@@H](C)[C@H](NC(=O)c1cccc(CN)c1)C(=O)N[C@@H](CCc1ccccc1)C(=O)COc1ccccc1,-3.97
13,CCOc1ccc(Nc2nc(-c3cccs3)cs2)cc1,-1.37
14,COc1ccc(-c2cc3n(c2)CCn2c(C)ccc2-3)cc1,14.4
15,Clc1ccnnc1N1CCCC2CCCCC21 (stereo not drawn),4.47
16,COc1ccc(Cn2c(C(=O)O)c(CNCCc3ccc(OC)c(OC)c3)c3ccccc32)cc1,8.65
17,CCO/C(O)=C1/C(C)=Nc2ncnn2C1c1cccs1 (stereo not drawn),-3.37
18,COc1ccc(NC(=O)c2cc(Cl)c(Cl)c(S(=O)(=O)N3CCOCC3)c2)cc1,-2.83
19,C(CN1CCOCC1)NC1C2CC3CC(C2)CC1C3 (stereo not drawn),-0.414
20,CN1C(=O)C(C2c3c(n(C)c(=O)n(C)c3=O)Oc3ccc4ccccc4c32)C(=O)N(C)C1=O (stereo not drawn),4.12
21,COc1ccc(NC(=O)CN(c2ccc(C)c(Cl)c2)S(C)(=O)=O)cc1,-5.67
22,Oc1c2c(nc3nnnn13)-c1ccccc1CC21CCCCC1,1.24
23,Cn1c(=O)n(Cc2ccccc2)c(=O)c2c1nc1n2CCS1,2.41
24,Cc1ccc(CS(=O)Cc2ccc(C(=O)NC3CCCC(C)C3C)o2)cc1 (stereo not drawn),3.24
25,CC1CC(C)CN(CCCNC(=O)CCCn2ncn3c(cc4occc43)c2=O)C1 (stereo not drawn),6.31

row,Structure (SMILES),% Inhibition @ 10 uM [%]
1,CC1(C)CC2CC(C)(CN2C(=O)CN2C(=O)c3ccccc3C2=O)C1 (stereo not drawn),-1.46
2,O=C(CN(Cc1ccccc1)S(=O)(=O)c1ccc(F)cc1)Nc1cccc(C(F)(F)F)c1,-7.58
3,O=C(Nc1ccc(Cl)cc1[N+](=O)[O-])c1ccc([N+](=O)[O-])cc1,0.247
4,O=C(Nc1ccc(Cl)cc1C(=O)N1CCCCC1CCO)c1ccc(Cl)cc1Cl (stereo not drawn),2.17
5,CC(CN1CCOCC1)c1ccccc1 (stereo not drawn),0.0792
6,Cc1cccc(C(=O)N(C)c2ccccc2)c1,-4.4
7,CCc1nc(O)c2c(n1)-c1ccccc1CC21CCCC1,-0.267
8,O=C(Nc1nc(O)nc(/C=C/c2ccccc2)n1)NS(=O)(=O)c1ccccc1Cl,-3.48
9,CCCC1CCc2c(sc(NC(=O)C3CC4CCC3C4)c2C(N)=O)C1 (stereo not drawn),6.65
10,O=C(NCCC1=CCCCC1)c1cc2c(s1)-c1ccccc1OC2,1.89
11,COc1ccc(C2=NCCc3cc(OC)c(OC)cc32)cc1,1.83
12,COc1ccccc1CN1COc2c(cc3c(oc(=O)c4ccccc43)c2C)C1,-2.57
13,COc1cccc(C(=O)N2CCN(c3cccc(C)c3C)CC2)c1,-8.06
14,Cn1c(NCc2ccc(C(F)(F)F)cc2)nc2ccccc21,1.64
15,Cc1ccccc1C(=O)Nc1ccc(-c2cn3cccnc3n2)cc1,2.93
16,Cc1ccccc1C(=O)Nc1c(C(=O)N2CCC(C)CC2)cnn1-c1ccccc1,-5.9
17,COc1cc(C2CC(=O)C=C(O)C2)cc(OC)c1OC (stereo not drawn),2.09
18,O=C(Nc1ccc2c(c1)C(=O)N(C1CCCCC1)C2=O)c1ccc(Br)o1,9.19
19,c1ccc2c(c1)N=C1CCCCC1C1(CCCCC1)N2 (stereo not drawn),-0.582
20,COc1ccc(OCC2c3cc(OC)c(OC)cc3CCN2C(=O)C(C)(C)C)cc1 (stereo not drawn),-0.587
21,COC(=O)[C@H](Cc1ccccc1)NC(=O)O[C@@H](CC(C)C)C(=O)NCC#N,-7.36
22,COc1ccc2c(CNCc3ccc(C)cc3)c(C(=O)O)n(Cc3ccc(F)cc3Cl)c2c1,6.94
23,COc1ccc(S(=O)(=O)NCCSCc2ccc(Cl)cc2Cl)cc1,0.726
24,O=C(Nc1cccc(F)c1)Nc1cccc(Cl)c1,-0.0404
25,C#CC(C)(CC)NC(=O)Cn1nnc(-c2ccccc2C)n1 (stereo not drawn),2.72

row,Structure (SMILES),% Inhibition @ 10 uM [%]
1,Cc1nc(Cl)c(C#N)c2c1COC(C)(C)C2,-1.1
2,CC1CCN(S(=O)(=O)c2ccc3c(ccn3CCC(=O)NCC3CCCO3)c2)CC1 (stereo not drawn),2.96
3,Cc1ccc2nc3c(O)n(CC(=O)N4CCN(C5CCCCC5)CC4)ncc-3c2c1,2.42
4,O=S(=O)(c1ccc(-c2ccc(O)nn2)s1)N1CCN(CCOc2ccc(Cl)cc2)CC1,6.65
5,CCCNC(=O)NS(=O)(=O)c1cnccc1Sc1ccc(Cl)cc1,-3.92
6,COc1ccc(-c2nc(CS(=O)CC(=O)NC3CCCc4ccccc43)c(C)o2)cc1OC (stereo not drawn),-6.64
7,COc1ccc(CCN2C(=O)CN(C3CCCCCC3)C(=O)C2c2ccccc2F)cc1OC (stereo not drawn),-2.26
8,COc1ccc(-c2nc3c(n2O)CCCC3=O)cc1,-5.11
9,CCn1c(C)cc(/C=C2\NC(=O)N(CC(=O)Nc3ccc(F)cc3)C2=O)c1C,0.528
10,COc1ccc(CCNC(=O)c2ccc(N(C)S(C)(=O)=O)cc2)cc1,3.49
11,Cc1cccc(OCC(=O)Nc2ccccc2C(=O)Nc2ccccc2)c1,-5.95
12,Cc1ccccc1COc1ccc(C2C(C#N)=C(N)Oc3[nH]nc(C)c32)cc1 (stereo not drawn),-1.64
13,Cc1ccnc(NC(=O)c2ccc(-c3ccccc3)s2)c1,4.4
14,COc1cc(C(=O)Nc2nc3ccc(S(C)(=O)=O)cc3s2)cc(OC)c1OC,-2.53
15,CC(C)CC(C(=O)NCCc1ccc(Cl)cc1)N1Cc2ccccc2C1=O (stereo not drawn),-1.31
16,Cc1ccccc1S(=O)(=O)Cc1ccc(C(=O)NCCN(C)Cc2ccccc2)o1,0.244
17,O=C(Cn1cc2c(n1)CCCCC2)NCc1ccccn1,1.8
18,CSc1nc(N)c(C#N)c(-c2ccccc2)c1C#N,2.65
19,Cc1ccc(S(=O)(=O)N2CCN(C(=O)CSc3nnc(N)s3)C2)cc1,-7.33
20,CCOC(=O)C1=CN(Cc2ccc(F)cc2)C=C(C(=O)OCC)C1c1ccc(C(F)(F)F)cc1,4.99
21,CC(C)C[C@H](NC(=O)c1cc(Cl)nc(Cl)c1)C(=O)NCC#N,2.87
22,O=S(=O)(/N=C/c1ccccc1)c1cccs1,1.67
23,CCOc1cc(/C=C2/C(=N)N3OC(C)=CC3=NC2=O)ccc1OCCOc1ccccc1C,-1.43
24,Cc1c2cnn(CC(=O)N3CCN(c4ccccn4)CC3)c(=O)c2c(C)n1Cc1ccccc1,1.22
